# About 7,000 (2%) of roughly 350,000 compounds were called active. The inconclusive results got no clear call from the source; some entries with a clear call stand among them for comparison. Cut-off read from the data, not from the text of the source: active = activation above about 40%; inconclusive = no clear call, values can overlap the other calls; inactive = below that.
# Assay: raisers of Bmi1 knock-in reporter signal – mouse ES cells, Bmi1 luciferase knock-in, single point, esBAF inhibitor project, primary screen (AID 602393);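 note: 0% = median of the plate's neutral control wells and 100% = double that signal; a rise in the Bmi1 reporter signal indicates esBAF inhibition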
# Details: 24 h, at 12.5 µM, stronger effect = higher value, 100% = twice the neutral-well signal
row,Compound,reporter increase
1,O=C(COC(=O)c1cccc(-n2cnnn2)c1)c1ccc(F)c(F)c1,inconclusive: 42.6%
2,O=C(Nc1ccccc1F)c1cc2nc(C(F)F)cc(C(F)F)n2n1,active: 58.4%
3,c1ccc(Cn2cc(CSc3ccccc3)nn2)cc1,inconclusive: 42.4%
4,O=C(Nc1nc2ccccc2s1)c1cccc(N2C(=O)CCC2=O)c1,inconclusive: 42.2%
5,O=C(c1cccnc1)N1CC[C@@H]2[C@@H](CO)Nc3ccc(-c4ccc(F)cc4)cc3[C@@H]21,inactive: -1.84%
6,CO[C@@H]1CN(C)C(=O)c2cc(NC(=O)Nc3ccccc3F)ccc2OC[C@@H](C)N(C(C)=O)C[C@@H]1C,inactive: 2.89%
7,C=CCNC(=S)Nc1ccc2nc(C)c(C)nc2c1,inconclusive: 40.4%
8,Cc1sc2ncnc(SCC(=O)c3cccs3)c2c1C,active: 60.4%
9,O=C(CN1C(=O)COc2ccccc21)NCCN1CCOCC1,inactive: -3.66%
10,Cc1ccc(Nc2nc(=O)c3cccnc3s2)cc1,inconclusive: 57%
11,Cc1nc(-c2cccc(NS(C)(=O)=O)c2)cs1,inactive: 2%
12,COc1ccc2c(c1)C(=O)CC(c1ccccc1)O2 (stereo unspecified),inconclusive: 44.7%
13,O=C(Oc1c(Br)cc(Br)c2cccnc12)N1CCCCC1,inconclusive: 40.2%
14,Fc1ccc2cc(-c3ccccc3)ncc2c1,active: 61.2%
15,N#CCCCC#Cc1ccc2c(c1)COc1c3ccccc3nn1-2,inactive: -69.8%
16,C[C@H]1CN([C@@H](C)CO)C(=O)Cc2cc(NC(=O)Nc3ccc4c(c3)OCO4)ccc2O[C@H]1CN(C)Cc1ccccc1,inconclusive: 41.5%
17,Clc1ccc(SCc2cn3cccnc3n2)cc1,inconclusive: 50.7%
18,O=c1[nH]c(Nc2ccccn2)cc2ccccc12,inconclusive: 44%
19,Cc1noc(C)c1NC(=O)N(C)C[C@@H]1OCCCC[C@@H](C)Oc2ccc(NS(=O)(=O)c3ccc(Cl)cc3)cc2C(=O)N([C@@H](C)CO)C[C@H]1C,inactive: 0.0835%
20,Cn1cnc(S(=O)(=O)N2C[C@H](O)COC[C@@H]3O[C@H](CC(=O)NCc4cc(F)cc(F)c4)CC[C@H]32)c1,inactive: 1.22%
21,O=C(Nc1ccc2c(c1)OCCO2)c1cccc(S(=O)(=O)N2CCOCC2)c1,inconclusive: 40%
22,COc1cc(C(c2c(C)[nH][nH]c2=O)c2c(C)[nH][nH]c2=O)ccc1OCc1ccc([N+](=O)[O-])cc1,inactive: -10.9%

row,Compound,reporter increase
1,COc1cccc(NC(=O)CCC(=O)Nc2ccc3nc(N4CCOCC4)cc(C)c3c2)c1,inconclusive: 41.5%
2,COc1cc2c(cc1OC)CN(c1ncccc1[N+](=O)[O-])CC2,inconclusive: 53.4%
3,O=C(/C=C/NNC(=O)c1ccccc1O)c1ccccc1,active: 61.1%
4,COc1cccc(Nc2nc(C(N)CC(C)C)cs2)n1 (stereo unspecified),inactive: -1.49%
5,Cc1ccc(CNC(=O)c2cc(-c3ccccc3)nn2Cc2cc(C)no2)cc1,inconclusive: 42.5%
6,COc1cc2ccccc2cc1C(=O)Nc1ccc(C)cn1,inconclusive: 47.5%
7,Cc1noc(C)c1NC(=O)Nc1ccc2c(c1)C(=O)N([C@@H](C)CO)C[C@@H](C)[C@H](CN(C)CC1CC1)OCCCC[C@H](C)O2,inactive: -3.38%
8,Cc1ccc(NC(=O)C2CCCO2)c(Br)c1 (stereo unspecified),inconclusive: 41.9%
9,Clc1ccc2nc(-c3ccccc3)c(Cc3ccsc3)n2c1,inconclusive: 40.9%
10,COc1nc(-c2ccccc2)ccc1-c1noc(-c2cccs2)n1,active: 45.8%
11,O=C(Cn1cnc2c(nnn2Cc2ccc(Cl)cc2)c1=O)NC1CCCC1,inactive: 13.9%
12,COc1cccc(CN2CCN(Cc3cccc(Oc4ccccc4)c3)CC2)c1OC,inactive: 0.394%
13,CN1c2ccsc2/C(=N/Nc2ccc(F)cc2)CS1(=O)=O,active: 63.6%
14,Cc1cc(C(=O)COc2ncnc3sccc23)c(C)n1C,active: 55.1%
15,OC1COC(OCc2ccccc2)C(O)C1O (stereo unspecified),inactive: 3.26%
16,COc1ccc(NC(=O)N(C)C[C@@H]2Oc3ccc(NS(=O)(=O)c4cn(C)cn4)cc3CC(=O)N([C@H](C)CO)C[C@@H]2C)cc1,inactive: -8.29%
17,COc1cc(SC)ccc1C(=O)NCC1CCCCC1,active: 65.2%
18,COc1ccc2c(C)nc(Nc3nc(-c4ccccc4)cc(=O)[nH]3)nc2c1,inactive: -61.8%
19,Cc1ccccc1C(=O)N1CCC(C(=O)N2CCCc3ccccc32)CC1,inconclusive: 41.4%
20,COc1cccc(NC(=O)N2C[C@@H](O)COC[C@H]3O[C@H](CC(=O)NC4CCCC4)CC[C@@H]32)c1,inactive: -4.49%
21,O=C(C[C@H]1CC[C@H]2NC[C@H](O)COC[C@@H]2O1)Nc1nccs1,inactive: -6.99%
22,Fc1ccc(-c2ccc(CNCc3ccccn3)o2)cc1,inconclusive: 40%

row,Compound,reporter increase
1,CC1(C)CC(=O)C(C=Nc2ccc3c(c2)OCO3)=C(O)C1,inconclusive: 43.3%
2,COc1ccc(C(=O)Nc2cccc(N(C)S(C)(=O)=O)c2)cc1OC,inconclusive: 41.9%
3,CC1CSc2nc3sc4c(c3c(=O)n21)CCCC4 (stereo unspecified),inconclusive: 40.6%
4,N=c1c2ccccc2nnn1-c1ccc(C(F)(F)F)cc1,inconclusive: 40.2%
5,S=C(Nc1ccc(Br)cc1)Nc1ccc2c(c1)OCCO2,inconclusive: 42.9%
6,COc1cccc2c(=O)c(C(=O)NCc3cccs3)c[nH]c12,inconclusive: 43.9%
7,COc1ccc(Cc2nc(-c3cccs3)no2)cc1,inconclusive: 48.4%
8,CCCN1C(=O)S/C(=C\c2ccc(N3CCOCC3)o2)C1=O,inconclusive: 40.9%
9,CC(=O)c1ccc(NS(=O)(=O)c2cccc(C)c2)cc1,inconclusive: 40.1%
10,C[C@H]1CN([C@@H](C)CO)C(=O)c2cc(C#CC(C)(C)O)cnc2O[C@@H]1CN(C)C(=O)c1ccccc1F,inactive: -1.27%
11,CCc1ccc(NC(=S)N2CCCC2)cc1,active: 49%
12,CCn1c(COc2ccccc2C)nc2ccccc21,active: 64.5%
13,C[C@H]1CN([C@@H](C)CO)C(=O)Cc2cc(NC(=O)NC3CCCCC3)ccc2O[C@@H]1CN(C)C(=O)Nc1cccc2ccccc12,inactive: -1.69%
14,O=C(Nc1ccc2c(c1)OCO2)c1ccc(COc2ccc3c(c2)CCC3)o1,inconclusive: 41.2%
15,COc1ccc(/C=C2\SC(=O)N(CCC(=O)NC3CCS(=O)(=O)C3)C2=O)cc1 (stereo unspecified),inconclusive: 41.3%
16,O=C(c1ccccc1)N(Cc1ccccc1)c1ccccn1,inactive: -2.1%
17,Cc1ccc(N=c2oc3cc(O)ccc3cc2C(N)=O)cc1,inactive: 19.9%
18,CSc1ccccc1C(=O)Nc1ccc2c(c1)CCC2,inconclusive: 61.1%
19,O=C(Nc1ccc(Cl)cc1)Nc1ccc(Br)cn1,inconclusive: 39.3%
20,CC1(C)Oc2ccc(NC(=O)c3ccco3)cc2O1,inconclusive: 40.1%
21,Cc1c(C)c2ccc(OCC(=O)c3ccccc3)cc2oc1=O,inconclusive: 45.2%
22,COc1ccc(CN(C)C[C@H]2Oc3ccc(NS(=O)(=O)c4cccs4)cc3C(=O)N([C@H](C)CO)C[C@@H]2C)cc1,inactive: -7.04%

row,Compound,reporter increase
1,COc1cccc(NC(=O)c2cc3ccccc3cc2OC)c1,active: 49.8%
2,CC(C)OC(=O)c1ccc(NC(=O)C2C3CC4OC(=O)C2C4C3)cc1 (stereo unspecified),inconclusive: 41%
3,C[C@H]1CCCCO[C@@H](CN(C)C(=O)c2ccccc2)[C@@H](C)CN([C@@H](C)CO)C(=O)c2cc(NS(=O)(=O)c3ccc(Cl)cc3)ccc2O1,inactive: -0.056%
4,O=[N+]([O-])c1ccc2oc(/C=C/c3ccc(O)cc3)nc2c1,active: 41.9%
5,CC(C)=CCC/C(C)=C/CNC(=O)C[C@H]1C[C@H](C(=O)N2CCCCC2)[C@@]2(CCc3ccccc3)c3[nH]c4cc(CCC(=O)N(C)C)ccc4c3CCN2C1=O,active: 52.3%
6,O=C(Nc1ccc(Br)cc1)N1CCCCCC1,inconclusive: 43.2%
7,Cc1ccc(S(=O)(=O)N(C)C[C@@H]2OCCCC[C@@H](C)Oc3ccc(NS(=O)(=O)c4cn(C)cn4)cc3C(=O)N([C@@H](C)CO)C[C@H]2C)cc1,inactive: -0.118%
8,CO[C@H]1CN(C)C(=O)c2cc(NC(=O)Cc3ccccc3)ccc2OC[C@H](C)NC[C@H]1C,inactive: 4.54%
9,CSCC(=O)N1CCc2ccc(NC(=O)c3ccccc3Cl)cc2C1,active: 66.2%
10,O=C(COC(=O)c1cc(Cl)nc(Cl)c1)NCCc1ccc(F)cc1,inactive: -9.39%
11,O=C(CSc1nnnn1-c1ccc(Cl)cc1)NC(=O)Nc1ccc2c(c1)OCCO2,active: 56.1%
12,O=C(Cc1ccccn1)NCC[C@@H]1CC[C@@H](NS(=O)(=O)c2ccc(Cl)cc2)[C@H](CO)O1,inactive: -2.48%
13,CCN(CC)S(=O)(=O)c1ccc(Nc2nc3ccccc3n3nnnc23)cc1,inconclusive: 44.3%
14,CCOC(=O)N1CCc2c(sc(NC(=O)C3COc4ccccc4O3)c2C(N)=O)C1 (stereo unspecified),inconclusive: 40.7%
15,C/C(=N\Nc1ccc(C)c(Cl)c1)c1cccnc1,inconclusive: 53.5%
16,CCCN1CCC(=O)N([C@H](CSc2ccccc2)c2ccccc2)CC1,inconclusive: 42%
17,c1ccc(CNc2ncnc3c2cnn3-c2ccccc2)cc1,inconclusive: 40.6%
18,Cc1cc(C)c(C)c(S(=O)(=O)N2CCN(C(=O)c3ccc4c(=O)n5c(nc4c3)CCC5)CC2)c1C,inactive: -1.07%
19,CCOC(=O)N1CCN(C(=O)CSCC(=O)Nc2nc(-c3ccc4c(c3)OCO4)cs2)CC1,inconclusive: 40.8%
20,COc1cccc(CCNC(=O)c2cc(COc3ccc(C)c(C)c3)on2)c1OC,inconclusive: 58.5%
